In PubChem BioAssay AID686978 (National Center for Advancing Translational Sciences (NCATS), 2013):
Out of some 420,000 compounds screened, about 64,000 (15%) were called active. This list was built around the results that the source calls inconclusive (neither active nor inactive); the mix of calls is not that of the screen. Calls come from the whole dose curve; as a rule, active = well fitted inhibition curve with a large enough effect; inconclusive = small, poorly fitted or top-dose-only effect; inactive = flat fitted curve, though single readings scatter. No potency is given beside an inconclusive call; the fits are too rough.

Experiment: qHTS for Inhibitors of human tyrosyl-DNA phosphodiesterase 1 (TDP1): qHTS in cells in absence of CPT; note: nearly all actives have a fitted effect of over 55% in size
Settings: DT40 Tdp1-/- hTDP1 cells, no CPT, ATP luminescence, 48 h; activity change, negative = growth inhibition: at 46.2 µM (top of the series) unless noted
In short: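 Stably hTDP1-transfected Tdp1-null chicken DT40 cells were treated with library compounds minus camptothecin and grown for at least 48 hr at 37 °C, after which cellular ATP was quantified by luminescence.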
% is set by controls: 0 for no effect and ±100 for the full control effect; potency is the fitted concentration of half-maximal effect; tags give direction and shape of the fitted curve.

SMILES	Potency	activity change, negative = growth inhibition
O=C(c1cc2ccccc2oc1=O)N(c1ccc(Cl)cc1)C1C=CS(=O)(=O)C1 (centres undefined)	inconclusive [inhibitor, single point]	
Cn1nnc2c(N3CCN(c4cccc(Cl)c4)CC3)ncnc21	active: 4.11 µM	
CCCCC(=O)Nc1cccc(NC(=O)c2cccc([N+](=O)[O-])c2)c1	inconclusive [inhibitor, single point]	
O=C(c1cc(-c2ccc(Cl)cc2)n(-c2ccc(Cl)c(Cl)c2)n1)N1CCOCC1	inconclusive [inhibitor, single point]	
O=C(c1ccco1)N1CCCC(c2nc3c(nnn3Cc3ccc(F)cc3)c(=O)[nH]2)C1 (centres undefined)		inactive: -8.28%
Cc1cccc(NC(=O)c2nc[nH]c2C(=O)NC[C@H](C)O)c1	inconclusive [inhibitor, partial curve]	
CC(Oc1ccc(F)cc1)C(=O)Nc1sc2c(c1C(=O)NCc1cccnc1)CCCC2 (centres undefined)	inconclusive [inhibitor, single point]	
CCCCOC(=O)c1c(N)n(-c2ccc(OC)cc2OC)c2nc3ccccc3nc12	active: 16.4 µM	
COC(=O)C1C(C(C)C)N(c2ccccc2)OC1(C)O (centres undefined)	inconclusive [inhibitor, single point]	
CC(C)CC1C(=O)N(Cc2cn(Cc3ccco3)nn2)CCS(=O)(=O)N1Cc1ccc(-c2cccc(CO)c2)cc1 (centres undefined)	active: 16.4 µM	
COc1ccc([C@H]2CC(=O)C=C(c3cccc(CO)c3)C2)cc1OC	inconclusive [inhibitor, partial curve, poor fit]	
CCC(Sc1nnc2c(n1)[nH]c1ccccc12)C(=O)Nc1nnc(C(C)C)s1 (centres undefined)	inconclusive [inhibitor, single point]	
O=C(NCCCN1CCOCC1)c1ccc(NS(=O)(=O)c2cccc([N+](=O)[O-])c2)cc1		inactive: -12.8%
COc1ccc(/C=C/C(=O)NC(=S)NNC(=O)c2cccs2)cc1	active: 4.61 µM	
Cc1ccccc1CSc1ncc(C#N)c(N)n1	inconclusive [inhibitor, partial curve, poor fit]	
O=C(NCCc1ccccc1)C1CCN(C(=O)c2ccc([N+](=O)[O-])cc2)CC1		inactive: 3.24%
Cc1ccc(C(=O)c2cc(O)c(O)c([N+](=O)[O-])c2)cc1	inconclusive [inhibitor, single point]	
O=C(NCC(=O)N1CCN(c2ccccc2O)CC1)C1CCCCC1	inconclusive [inhibitor, single point]	
CCC(=O)Nc1nc(NCc2ccccc2OC)n(-c2ccccc2)n1		inactive: -12.1%
CCOC(=O)C1=C(C)NC(C)=C(C(=O)OCC)C1c1ccc(C)o1	inconclusive [inhibitor, single point]	
COc1ccc(NC(=O)O/N=C2/CCCc3ccc(OC)cc32)cc1	inconclusive [inhibitor, single point]	
COc1cc(Br)c(-c2sc(Nc3ccccc3)n[n+]2-c2ccccc2)cc1OC	inconclusive [inhibitor, single point]	

SMILES	Potency	activity change, negative = growth inhibition
Cc1ccc(C)c(CN2CCC(n3nccc3NC(=O)CCCc3ccccc3)CC2)c1	inconclusive [inhibitor, single point]	
O=Nc1c(-c2c(O)[nH]c3ccccc23)[nH]c2ccccc12	inconclusive [inhibitor, single point]	
CC(C(=O)OCC(=O)NC1CCCCC1)N1C(=O)c2ccccc2C1=O (centres undefined)		inactive: -1.26%
CCOc1ccc(S(=O)(=O)N2CCN(C(=O)c3cc([N+](=O)[O-])ccc3N3CCOCC3)CC2)cc1		inactive: -2.09%
COc1ccc(/C=N/n2cncn2)cc1CSc1ccccn1		inactive: -1.7%
O=C(NC1CCCCC1)C1CN(S(=O)(=O)c2ccccc2)CCN1S(=O)(=O)c1ccccc1 (centres undefined)	inconclusive [inhibitor, single point]	
NC(=O)N/N=C\c1cc(Br)ccc1O	inconclusive [inhibitor, single point]	
O=C(CN1C(=O)NC2(CCCCC2)C1=O)N1CCN(S(=O)(=O)c2cccc([N+](=O)[O-])c2)CC1		inactive: -9%
COc1ccc(-c2cc(C(=O)N/N=C/c3ccc(OC)c(COCC(F)(F)C(F)F)c3)c3ccccc3n2)c(OC)c1	active: 5.8 µM	
CC1CC(C)CN(C(=O)c2cc3ccccc3o2)C1 (centres undefined)	inconclusive [inhibitor, single point]	
Cc1[nH]c2ccccc2c1C(=O)/C=C\c1ccccc1Cl	inconclusive [inhibitor, single point]	
CC(C)(C)c1ccc(C(=O)NCC(=O)N2CCC3(CC2)NCCc2[nH]cnc23)cc1		inactive: 0.0065%
CCCNC(=O)C1(C)CCN(Cc2csc3ccccc23)C1 (centres undefined)	inconclusive [inhibitor, single point]	
O=C1COc2ccc(C(=O)c3ccccc3C(=O)NCc3ccccc3)cc2N1	inconclusive [inhibitor, partial curve]	
NC(=O)c1nn2c(C(F)(F)F)cc(-c3ccccc3)nc2c1Br	inconclusive [inhibitor, single point]	
Cc1c(CN2CCCC(C(=O)c3cccc(OC(C)C)c3)C2)c(=O)n(-c2ccccc2)n1C (centres undefined)		inactive: -5.63%
O=C(NCC(c1ccco1)N1CCN(c2ccc(F)cc2)CC1)C1CCCCC1 (centres undefined)	inconclusive [inhibitor, single point]	
OC(c1cccc(F)c1)c1ncc(-c2ccc(C(F)(F)F)cc2)[nH]1 (centres undefined)	active: 16.4 µM	
COc1cccc(-c2nc(CCl)cs2)c1	inconclusive [inhibitor, partial curve, poor fit]	
Cc1ncsc1C(=O)N1N=C2/C(=C/c3ccc(N4CCOCC4)cc3)CCCC2C1c1ccc(N2CCOCC2)cc1 (centres undefined)	inconclusive [inhibitor, single point]	
O=C(NC1CC(=O)N(c2cccc(F)c2)C1)c1cccs1 (centres undefined)		inactive: -17.2%
Cc1nccn1CC(=O)N/N=C/c1cccs1		inactive: 0.454%
